At least one read-out could not be matched to a standard name with certainty. Some compounds share one wording; it may come from a single statement.
Assays:
mice [1] = test: 4 plates test, modified: 5 mg/kg orally, index of variation of punished passages with respect to trimetozine; format: in vivo, Swiss male mice; details: male mice, 5 mg/kg single oral dose, 60 minutes before the test
mice [2] = test: 4 plates test (suppressive conditioning), 25 mg/kg orally, increase in punished passages with respect to control; format: in vivo, Swiss male mice; details: male mice, 25 mg/kg single oral dose, 60 minutes before the test
Source text: The method is based on the attenuation or suppression of the anxiety state induced by electric shocks on movement of the animals (mice) into a special enclosure.
The anxiolytic effect is manifested by an increase in movements at doses not affecting motility.
For each dose, the groups are of 15 animals which have not undergone the test.
The apparatus was of the Apelex type.
It is composed of a parallelepipedic box of white plastic material, provided with a lid of transparent plexiglas, mobile by means of two hinges. The floor, which is rectangular, is constituted by four plates of conductive metal of which the distance between one another and the walls of the box is of 0.5 cm.
These plates are connected to an Apelex impulse generator. The potential difference when there is no impulse is, nil between two plates on a diagonal and is of 180 Volts between two adjacent plates. A trigger enables that a constant electrical current pulse be sent (of 0 to 2 milliamperes) for a selected time (from 0.1 to 5 seconds).
The operation is carried out in a silent area at constant temperature, the experimenter overlooking the box so that he can follow all the movements of the mice placed on one of the plates.
For each animal, the experiment is carried out according to the following modalities:
preliminary exploration of 15 seconds, without electric shock;
punished exploration (electric shock for each movement between two ajdacent plates) for 60 seconds.
The electric shocks have a duration of 0.5 seconds and an intensity of 0.6 milliampere.
The controls receive only carboxymethylcellulose.
The results are expressed as percentage of increase in the number of punished passages with respect to the control batch (increase percentage).

Structure (SMILES): COc1cc(OC)c(S(=O)(=O)N2CCCCC2)cc1S(C)(=O)=O [Compound 1211]
- Index of variation of the number of punished passages (trimetozine = 100, control = 0) (mice [1]; 5 mg/kg): 68
- Index of variation of the number of punished passages (trimetozine = 100, control = 0) (mice [1]; listed as 1 211, 5 mg/kg): higher than 50

Structure (SMILES): COc1cc(OC)c(S(=O)(=O)N2CCN(Cc3ccccc3)CC2)cc1S(=O)(=O)C(C)C [Compound 1214, 4-Benzyl 1-[(2,4-dimethoxy 5-isopropylsulfonyl)benzenesulfonyl]piperazine]
- Index of variation of the number of punished passages (trimetozine = 100, control = 0) (mice [1]): 29

Structure (SMILES): COc1cc(OC)c(S(=O)(=O)N2CCNCC2)cc1Cl [Compound 1220, 1-[(5-Chloro 2,4-dimethoxy)benzenesulfonyl]piperazine]
- Index of variation of the number of punished passages (trimetozine = 100, control = 0) (mice [1]): 20

Structure (SMILES): COc1cc(OC)c(S(=O)(=O)N2CCCCC2)cc1Cl [Compound 1224]
- Index of variation of the number of punished passages (trimetozine = 100, control = 0) (mice [1]; 5 mg/kg): 90
- Index of variation of the number of punished passages (trimetozine = 100, control = 0) (mice [1]; listed as 1 224, 5 mg/kg): higher than 50

Structure (SMILES): COc1cc(OC)c(S(=O)(=O)N2CCNCC2)cc1S(C)(=O)=O [Compound 1242, 1-[(2,4-Dimethoxy 5-methylsulfonyl)benzenesulfonyl]piperazine]
- Index of variation of the number of punished passages (trimetozine = 100, control = 0) (mice [1]; 5 mg/kg): 97
- Index of variation of the number of punished passages (trimetozine = 100, control = 0) (mice [1]; listed as 1 242, 5 mg/kg): higher than 50

Structure (SMILES): COc1ccc(Cl)cc1S(=O)(=O)N1CCN(Cc2ccccc2)CC1 [Compound 1245]
- Index of variation of the number of punished passages (trimetozine = 100, control = 0) (mice [1]): 48

Structure (SMILES): COc1ccc(Cl)cc1S(=O)(=O)N1CCOCC1 [Compound 1247]
- Index of variation of the number of punished passages (trimetozine = 100, control = 0) (mice [1]; 5 mg/kg): 90
- Index of variation of the number of punished passages (trimetozine = 100, control = 0) (mice [1]; listed as 1 247, 5 mg/kg): higher than 50

Structure (SMILES): COc1cc(OC)c(S(=O)(=O)N2CCN(C)CC2)cc1OC [Compound 1260]
- % increase in the number of punished passages with respect to the control batch (mice [2]): higher than 20%

Structure (SMILES): COc1cc(OC)c(S(=O)(=O)N2CCN(CCO)CC2)cc1OC [Compound 1264]
- Index of variation of the number of punished passages (trimetozine = 100, control = 0) (mice [1]): 22

Structure (SMILES): COc1cc(OC)c(S(=O)(=O)N2CCN(CC(O)CO)CC2)cc1OC (centres unmarked) [Compound 1265]
- Index of variation of the number of punished passages (trimetozine = 100, control = 0) (mice [1]; 5 mg/kg): 107
- Index of variation of the number of punished passages (trimetozine = 100, control = 0) (mice [1]; listed as 1 265, 5 mg/kg): higher than 50

Structure (SMILES): COc1cc(OC)c(S(=O)(=O)N2CCN(C(=O)C34CC5CC(CC(C5)C3)C4)CC2)cc1Cl [Compound 1270]
- Index of variation of the number of punished passages (trimetozine = 100, control = 0) (mice [1]; 5 mg/kg): 117
- Index of variation of the number of punished passages (trimetozine = 100, control = 0) (mice [1]; listed as 1 270, 5 mg/kg): higher than 50

Structure (SMILES): COc1cc(OC)c(S(=O)(=O)N2CCN(C(=O)c3ccco3)CC2)cc1Cl [Compound 1274]
- Index of variation of the number of punished passages (trimetozine = 100, control = 0) (mice [1]; 5 mg/kg): 53
- Index of variation of the number of punished passages (trimetozine = 100, control = 0) (mice [1]; listed as 1 274, 5 mg/kg): higher than 50

Structure (SMILES): COc1cc(OC)c(S(=O)(=O)N2CCN(CC(O)CO)CC2)cc1Cl (centres unmarked) [Compound 1295]
- Index of variation of the number of punished passages (trimetozine = 100, control = 0) (mice [1]; 5 mg/kg): 70
- Index of variation of the number of punished passages (trimetozine = 100, control = 0) (mice [1]; listed as 1 295, 5 mg/kg): higher than 50

Structure (SMILES): COc1ccc(Br)cc1S(=O)(=O)N1CCN(c2ccc(F)cc2)CC1 [Compound 1299]
- % increase in the number of punished passages with respect to the control batch (mice [2]): higher than 20%

Structure (SMILES): COc1cc(OC)c(S(=O)(=O)N2CCCNCC2)cc1OC [Compound 1301]
- Index of variation of the number of punished passages (trimetozine = 100, control = 0) (mice [1]; 5 mg/kg): 120
- Index of variation of the number of punished passages (trimetozine = 100, control = 0) (mice [1]; listed as 1 301, 5 mg/kg): higher than 50

Structure (SMILES): COc1cc(OC)c(S(=O)(=O)N2CCCNCC2)cc1S(C)(=O)=O [Compound 1302]
- Index of variation of the number of punished passages (trimetozine = 100, control = 0) (mice [1]): 30

Structure (SMILES): COc1cc(OC)c(S(=O)(=O)N2CCCN(C(=O)c3ccco3)CC2)cc1OC [Compound 1304]
- Index of variation of the number of punished passages (trimetozine = 100, control = 0) (mice [1]; 5 mg/kg): 85
- Index of variation of the number of punished passages (trimetozine = 100, control = 0) (mice [1]; listed as 1 304, 5 mg/kg): higher than 50

Structure (SMILES): COc1cc(OC)c(S(=O)(=O)N2CCCN(C(=O)c3ccco3)CC2)cc1S(C)(=O)=O [Compound 1306]
- Index of variation of the number of punished passages (trimetozine = 100, control = 0) (mice [1]; 5 mg/kg): 155
- Index of variation of the number of punished passages (trimetozine = 100, control = 0) (mice [1]; listed as 1 306, 5 mg/kg): higher than 50

Structure (SMILES): O=S(=O)(c1cccc(C(F)(F)F)c1)N1CCN(CC(O)CO)CC1 (centres unmarked) [Compound 1334]
- Index of variation of the number of punished passages (trimetozine = 100, control = 0) (mice [1]; 5 mg/kg): 144
- Index of variation of the number of punished passages (trimetozine = 100, control = 0) (mice [1]; listed as 1 334, 5 mg/kg): higher than 50

Structure (SMILES): O=S(=O)(c1cc(C(F)(F)F)cc(C(F)(F)F)c1)N1CCN(CCO)CC1 [Compound 1389]
- Index of variation of the number of punished passages (trimetozine = 100, control = 0) (mice [1]; 5 mg/kg): 52
- Index of variation of the number of punished passages (trimetozine = 100, control = 0) (mice [1]; listed as 1 389, 5 mg/kg): higher than 50

Structure (SMILES): O=S(=O)(c1cc(C(F)(F)F)cc(C(F)(F)F)c1)N1CCN(Cc2ccccc2)CC1 [Compound 1390]
- Index of variation of the number of punished passages (trimetozine = 100, control = 0) (mice [1]; 5 mg/kg): 64
- Index of variation of the number of punished passages (trimetozine = 100, control = 0) (mice [1]; listed as 1 390, 5 mg/kg): higher than 50

Structure (SMILES): O=C(c1ccco1)N1CCCN(S(=O)(=O)c2cc(C(F)(F)F)cc(C(F)(F)F)c2)CC1 [Compound 1396]
- Index of variation of the number of punished passages (trimetozine = 100, control = 0) (mice [1]; 5 mg/kg): 59
- Index of variation of the number of punished passages (trimetozine = 100, control = 0) (mice [1]; listed as 1 396, 5 mg/kg): higher than 50

Structure (SMILES): O=S(=O)(c1cc(C(F)(F)F)cc(C(F)(F)F)c1)N1CCNCC1 [Compound 1400]
- Index of variation of the number of punished passages (trimetozine = 100, control = 0) (mice [1]): 16

Structure (SMILES): O=C(c1ccco1)N1CCN(S(=O)(=O)c2ccc(Cl)c(C(F)(F)F)c2)CC1 [Compound 1402]
- Index of variation of the number of punished passages (trimetozine = 100, control = 0) (mice [1]): 16

Structure (SMILES): O=C(c1ccco1)N1CCN(S(=O)(=O)c2cc(C(F)(F)F)cc(C(F)(F)F)c2)CC1 [Compound 1403]
- % increase in the number of punished passages with respect to the control batch (mice [2]): higher than 20%

Structure (SMILES): O=C(N1CCN(S(=O)(=O)c2cc(C(F)(F)F)cc(C(F)(F)F)c2)CC1)C12CC3CC(CC(C3)C1)C2 [Compound 1404]
- Index of variation of the number of punished passages (trimetozine = 100, control = 0) (mice [1]): 43

Structure (SMILES): O=C(N1CCN(S(=O)(=O)c2ccc(Cl)c(C(F)(F)F)c2)CC1)C12CC3CC(CC(C3)C1)C2 [Compound 1406]
- % increase in the number of punished passages with respect to the control batch (mice [2]): higher than 20%

Structure (SMILES): O=C(N1CCCN(S(=O)(=O)c2ccc(Cl)c(C(F)(F)F)c2)CC1)C12CC3CC(CC(C3)C1)C2 [Compound 1407]
- Index of variation of the number of punished passages (trimetozine = 100, control = 0) (mice [1]; 5 mg/kg): 179
- Index of variation of the number of punished passages (trimetozine = 100, control = 0) (mice [1]; listed as 1 407, 5 mg/kg): higher than 50

Structure (SMILES): O=S(=O)(c1cc(C(F)(F)F)cc(C(F)(F)F)c1)N1CCCNCC1 [Compound 1408]
- % increase in the number of punished passages with respect to the control batch (mice [2]): higher than 20%

Structure (SMILES): COc1cc(N)ccc1S(=O)(=O)N1CCN(C)CC1 [Compound 1425]
- Index of variation of the number of punished passages (trimetozine = 100, control = 0) (mice [1]; 5 mg/kg): 133
- Index of variation of the number of punished passages (trimetozine = 100, control = 0) (mice [1]; listed as 1 425, 5 mg/kg): higher than 50

Structure (SMILES): COc1cc(NC(=O)c2ccccc2)ccc1S(=O)(=O)N1CCN(C)CC1 [Compound 1426, 1-[(4-benzamido 2-methoxy)benzenesulfonyl]4-methylpiperazine]
- Index of variation of the number of punished passages (trimetozine = 100, control = 0) (mice [1]; 5 mg/kg): 154
- Index of variation of the number of punished passages (trimetozine = 100, control = 0) (mice [1]; listed as 1 426, 5 mg/kg): higher than 50

Structure (SMILES): COc1cc(N)c(Cl)cc1S(=O)(=O)N1CCN(C)CC1 [Compound 1427, 1'1-[(4-amino 5-chloro 2-methoxy)benzenesulfonyl]4-methyl piperazine]
- Index of variation of the number of punished passages (trimetozine = 100, control = 0) (mice [1]): 46

Structure (SMILES): COc1cc(NC(C)=O)c(Cl)cc1S(=O)(=O)N1CCN(C)CC1 [Compound 1428, 1-[(4-Acetamido 5-chloro 2-methoxy)benzenesulfonyl]4-methyl piperazine]
- Index of variation of the number of punished passages (trimetozine = 100, control = 0) (mice [1]; 5 mg/kg): 133
- Index of variation of the number of punished passages (trimetozine = 100, control = 0) (mice [1]; listed as 1 428, 5 mg/kg): higher than 50

Structure (SMILES): O=S(=O)(c1cccc(C(F)(F)F)c1)N1CCN(CCCO)CC1 [Compound 1500]
- % increase in the number of punished passages with respect to the control batch (mice [2]): higher than 20%

Structure (SMILES): O=C(N1CCN(S(=O)(=O)c2cccc(C(F)(F)F)c2)CC1)C12CC3CC(CC(C3)C1)C2 [Compound 1503]
- % increase in the number of punished passages with respect to the control batch (mice [2]): higher than 20%

Structure (SMILES): O=S(=O)(c1cccc(C(F)(F)F)c1)N1CCNCC1 [Compound 1504]
- % increase in the number of punished passages with respect to the control batch (mice [2]): higher than 20%

Structure (SMILES): COc1cc(C(=O)N2CCOCC2)cc(OC)c1OC [Trimetozine, trimetozine, reference compound]
- Index of variation of the number of punished passages (trimetozine = 100, control = 0) (mice [1]): 100
